The source gives no read counts; variants with many changes may rest on few reads.

To fix the notation:
B1: LINE1-mini (parent)
chain: GGCAGAGCUCAACACAGCGUGGCAAAGUGGCUGUGGCUAGACUGCC

The variants in the data set derive from B1. In words: self-cleavage, relative activity (ratio to wild type); higher = more cleavage; in vitro, sequencing; the parent is a self-cleaving ribozyme.
Consider GGCAGCGCUCAACGCAGCGUGGUAAAGUGGCUGUGGAUAGACUGCC [A6C A14G C23U C37A], for which the self-cleavage was 0.09.
For the variant GGCAGAGCUCAACACAGCGCGGCAAAGUGCCCGCGGCUAGACUGCC [U20C G30C U32C U34C], the self-cleavage is 0.04.
For GGCAGAGAUCAACACAGCGUGGCAAAGUGGCUUUGGCUAGUCUGCC [C8A G33U A41U], the self-cleavage turned out to be 0.18.
The result for GGCAGAGCGCAACACAGCGUGGCCAAGUGGCCGUGGCUAGACUGCA [U9G A24C U32C C46A] reads 0.01; that for GGCAGAGCUAAACACAUCGUGGCAAAGUAGCUGUGGCUAGACUGCC [C10A G17U G29A], 0.07.
Next, GGCAGAGUUCAACGCAGCGCGGCAAAGUGGCUGUGGCUAGGCUCCC [C8U A14G U20C A41G G44C]: 0.02; GGCAGAGCUCAACACUGCGUGGUAAAGUAGCUGUUGCGAGACUGCC [A16U C23U G29A G35U U38G]: 0.02.
Take GGCAGAGCUCAACACAGCGUGGCAAAAUGGUUGUGGCUCAACUGCG [G27A C31U A39C G40A C46G]: the self-cleavage came out at 0.03.
With GGCAGAGCUCAAGGCAGCGUGGCAAAGUAGCCGUGGCUAGACUUUC [C13G A14G G29A U32C G44U C45U], the self-cleavage is 0.02.
As for CGCAGAGCUCAACACAAGGUGGCAAAGUGGCUGUGGCUAGACUGCC [G1C G17A C18G], the self-cleavage was 0.01.
For the variant GGCUGAGAUCAACACAGAGUGGCAAAGUGGCUGUGGCUAGACUGCC [A4U C8A C18A], the self-cleavage was determined as 0.4.
With CGCAGAGCUAAACCCAGCGUGGCAAAGUGGCCGUGGCUAGACUACC [G1C C10A A14C U32C G44A], the self-cleavage came out at 0.
With GGCAGAGCUCAAAGCAGUGCGGUAAAGUGGCUGUAGCUAGACUGCC [C13A A14G C18U U20C C23U G35A], the self-cleavage is 0.28.
The result for GGCAGAGCUCAACACAGCAUGGAAAAGUUGCUGUGGCUAGACUGCC [G19A C23A G29U] reads 0.21.
Next, GGCAGAGCUCAACACAGCAUGGCCAAGUCGCUGUGGCUAGACUGCC [G19A A24C G29C]: 0.56.
Turning to GGCAGAGCUCAACAAAGCGUGGCAACGUGGCUGUGGCUAGACUGCA [C15A A26C C46A], the self-cleavage is 0.09.
For GGCAGAACUCAACACAGCCUCGCAAACUGGCUGUGGCAAGACUGCC [G7A G19C G21C G27C U38A], the self-cleavage was determined as 0.02.
As for GGCAGUGCUCAACCCAGCGUGGCCAAGUGGCUGUGGCUAGUCUGCC [A6U A14C A24C A41U], the self-cleavage is 0.05.
With GGCAGAGCUCAACCCAGAGUGGCAAAGUGGCUGUGGCUAUUCUGCC [A14C C18A G40U A41U], the self-cleavage is 0.12.
For GGCAGAGCCCAACACAGUGUGGCAAAGUGGCAGUGGCUAGACUGCC [U9C C18U U32A], the self-cleavage is 0.
In the case of GGCAGAGCUCAACACAGCCUGUUAAAGUGGCUGCGGCUAGACUAAC [G19C G22U C23U U34C G44A C45A], the self-cleavage was 0.09.
Next, CGCAGAGCUCAACAAAACGUGGCAAAUUGCCGGUGGCUAGACCGCC [G1C C15A G17A G27U G30C U32G U43C]: 0.01; GGCUAAGCUCAACACAGCGUGGCAAAGUGGCUGGGGCUAGACUGCC [A4U G5A U34G]: 0.03; GGCAGAGCUCAAUAAAGCGUGGCAAAGUGGCUGGGGCUAUACUGCC [C13U C15A U34G G40U]: 0.03.
Next, GGCGGAGAUCAACACAGCGUGGCAAAGUGGCUGUGGCUAGACUGCA [A4G C8A C46A]: 0.15.
GGCAGAGCUCAACAAAUCGGGGCAAAGAGGCUGUGGCUAGACUGCC [C15A G17U U20G U28A]: the self-cleavage was 0.04.
The result for GGCAUACCUAAACACAGCGUGGCCAAGUGGCUGUGGCUAGACUGCC [G5U G7C C10A A24C] reads 0; that for GGCAGAGCUCUACACAGCGUGGCAAAGUGGCUCUGGUGAGACUGCC [A11U G33C C37U U38G], 0.01.
As to GGCAGAGCUCAAUACGGCGUGGCAAAGUGGCUGUGGCUAGGCUGCC [C13U A16G A41G], the self-cleavage was 0.02.
Next, GGCAGAGCUCAAGACCACGUGGCAAACCGGCUGUGUCUAGACUGCU [C13G A16C G17A G27C U28C G36U C46U]: 0.05.
Regarding GGCAGAGCUAAACACAGCGUGAAAAAGUGGCUGUGGCUAGACUGCC [C10A G22A C23A], the self-cleavage was 0.03.
For the variant GGCAGCGCUCAACACAGCGUGGCAAAGUGGCUGUGGAUAGAUUGCC [A6C C37A C42U], the self-cleavage was found to be 0.06.
As for GGCAGAGCUCAACACAGCGUAGCAAAGUGGCGGUGGCUAGACAGCC [G21A U32G U43A], the self-cleavage stood at 0.09.
On to GGCACAGCUCAACACAGCGUGGCAAAGAGGCUAUGGCUAGACUGCC [G5C U28A G33A], for which the self-cleavage worked out at 0.05.
Regarding GGCAGAGCUCUACACAGCGUGGCAAAGUGGCUAUGCCUAGAUUGCC [A11U G33A G36C C42U], the self-cleavage was 0.02.
GGCAGAGCUCAACACAGCGUGGAAAAGUGGCCUUGGCUAGACUGCC [C23A U32C G33U]: the self-cleavage was found to be 0.09.
Consider GGCAGAGCUGAACAAAGCGUGGCAAACGGGCUGUGGCUAGACUGCC [C10G C15A G27C U28G], for which the self-cleavage amounted to 0.04.
In the case of GGCAGAGCUAAAAACAGCGUGGCUAAGUGGCUGUGGCUAUACUGCC [C10A C13A A24U G40U], the self-cleavage amounted to 0.02.
GGGAGAGCUCAACACAGCGGGACAAAGUCGCUGUGGCUAGACUGCC [C3G U20G G22A G29C]: the self-cleavage was found to be 0.1.
For GGCAGAGAUCUACACUGCGUUGCAAAGUGGCUGUGGCUAGAGUGCC [C8A A11U A16U G21U C42G], the self-cleavage was determined as 0.01.
As to GGCAGAGGUCAACACAGCGUGGAUAAGUGGCUGUGACUAGACUGCC [C8G C23A A24U G36A], the self-cleavage was 0.03.
For GGCAGAGCUGAACACAGCGCGGCAAAGUGGCUGUGGCUAGAUUGCC [C10G U20C C42U], the self-cleavage turned out to be 0.03.
Regarding GGCAGAGCUCAACACCGCGUGUCAAAGUGGCUGUGGCUAGACUCCC [A16C G22U G44C], the self-cleavage stood at 0.04.
The result for GGAAGAGCUCAACUCAGCGUGGCAAAGUGGCUGUGGCUAGACUGCA [C3A A14U C46A] reads 0.1.
On to GGUGGAUCUUAACACAGCGUGGCAAAGUGGCUGUGGCUAGACAGCC [C3U A4G G7U C10U U43A], for which the self-cleavage is 0.03.
As to GGCAGACAUCAACACAGCGUGGCAAAGUGGCUGUGCCUAGACUGCC [G7C C8A G36C], the self-cleavage is 0.28.
For GGCGGAGCUCAAUACAGCGUGGCAAAGUGUUUGUGGCUAGACUGCC [A4G C13U G30U C31U], the self-cleavage stood at 0.07.
As to GGCAGAGCUCAACACAGCGUGGCAAAGUGGCUGUGGUUAGACGCCC [C37U U43G G44C], the self-cleavage was 0.02.
In the case of GGCAGAGCUCAUCACAGCGGGCAAAAGUGGCUGUGGCUAGACUGCC [A12U U20G G22C C23A], the self-cleavage is 0.29.
Next, GGCAGAGCUCAACAAAGCGUGGCCUAGUGGAUGUGGCUAGACUGCC [C15A A24C A25U C31A]: 0.01; GUCAGAGCUCAAUACUGCGUGGCAAAGUGGCUGUGGAUAGACUGCC [G2U C13U A16U C37A]: 0.02; GGUAGAGCCCAACACAGCGUAGCAAAGUGGCUCUGGCUAGUCUGCC [C3U U9C G21A G33C A41U]: 0.03.
GGCAGAGCUCAACACAGCGUGGGAACGUGGCUGUGGCUAGACUACG [C23G A26C G44A C46G]: the self-cleavage was 0.
GGCAGAGCACAAUACUGCUUGGCAAAGUGGCUGUGGCUAGAUUGCC [U9A C13U A16U G19U C42U]: the self-cleavage came to 0.19.
Take GGCAGGGCUCAACACAGCGUGGCAAAGUGGCUGUCGCUAGACUCAC [A6G G35C G44C C45A]: the self-cleavage came to 0.14.
The result for GGGAGAGCUCAACACAGCGUGGCAAAGUGGCGGUGGCUACACAGCC [C3G U32G G40C U43A] reads 0.05.
